The whole screen tested about 43,000 compounds, of which about 200 (0.47%) were called active. Roughly 12% stayed inconclusive and do not appear here. Calls come from the whole dose curve; as a rule, active = well fitted cell-killing curve with a large enough effect; inconclusive = small, poorly fitted or top-dose-only effect, or effect the other way; inactive = flat fitted curve, though single readings scatter. This is one part of the list.
Experiment: Cell viability qHTS assay in S16 Pmp22-F2sN cells; note: nearly all actives have a fitted effect of over 65% in size
Settings: S16 Pmp22-F2sN Schwann cells viability, CellTiter-Glo, 24 h; series mostly up to 57.5 µM; activity change, negative = cytotoxicity: at the top concentration
Procedure, shortened: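 S16 Pmp22-F2sN Schwann cells (500-1,000/well) in phenol-red-free DMEM with 10% FBS received 23 nL compound by pin tool for 24 h at 37 °C. Viability was then read as CellTiter-Glo luminescence after 15 min at room temperature.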
In the case of `Cc1ccc2nc(Cl)c3cc(C(=O)N(C)C4CCCCC4)sc3c2c1`, the “activity change, negative = cytotoxicity” value is reported as inactive: 0.607%. For `Cc1cc2nn(-c3ccc(F)cc3)nc2cc1NC(=O)c1ccc(OC(C)C)cc1`, the “activity change, negative = cytotoxicity” value was inactive: 5.88%. With `Cc1ccc(NC(=O)CSc2nc3ccc(NC(=O)c4cccs4)cc3s2)c(C)c1` the “activity change, negative = cytotoxicity” value was inactive: -33.7%. With `COc1cccc(Cn2c(=O)n(-c3cccc(Cl)c3C)c(=O)c3c4c(sc32)CN(C(C)=O)CC4)c1` the “activity change, negative = cytotoxicity” value was inactive: -22.9%. For `CCOC(=O)c1c(C)oc2nc(C)nc(NCC3CCN(Cc4cccc(C)c4)CC3)c12`, the “activity change, negative = cytotoxicity” value was inactive: 7.7%. With `CCn1c(CNC(=O)c2ccc(OC)cc2)nnc1SCC(=O)Nc1cccc(C)c1C` the “activity change, negative = cytotoxicity” value was inactive: 10.4%. In the case of `COc1ccccc1NC(=O)CSc1ccc(-c2sc(C)nc2C)nn1`, the “activity change, negative = cytotoxicity” value is reported as inactive: -4.31%. For `COc1cccc(CNCCSc2nnnn2C)c1OCc1ccc(Cl)cc1Cl`, the “activity change, negative = cytotoxicity” value was inactive: -28.9%. In the case of `CCC(Nc1ccc(-c2nc(-c3ccco3)no2)cc1[N+](=O)[O-])c1ccccc1` (configuration not stated), the “activity change, negative = cytotoxicity” value is reported as inactive: 4.93%. For `Cc1cccc(-c2nc(CCNC(=O)Cc3ccc(F)cc3)cs2)c1`, the “activity change, negative = cytotoxicity” value was inactive: -5.12%. For `CCc1cnc2c(c1SCC(=O)Nc1ccc(Cl)cc1)c(=O)n(C)c(=O)n2C`, the “activity change, negative = cytotoxicity” value was inactive: -3.44%. In the case of `COc1ccc(-c2cc(C(F)F)n3ncc(C(=O)Nc4cc(OC)ccc4OC)c3n2)cc1`, the “activity change, negative = cytotoxicity” value is reported as inactive: -16.3%. In the case of `CCOc1ccc(NC(=O)Cc2coc3ccc(C)cc23)cc1`, the “activity change, negative = cytotoxicity” value is reported as inactive: 14.8%. With `O=C(NCC(c1ccc2c(c1)OCO2)N1CCOCC1)c1ccccc1F` (configuration not stated) the “activity change, negative = cytotoxicity” value was inactive: -1.74%. In the case of `O=C(NCc1ccccc1)c1nnc(Cc2cccc(F)c2)o1`, the “activity change, negative = cytotoxicity” value is reported as inactive: 2.09%. With `CCc1ccc2occ(CC(=O)Nc3c(C(=O)Nc4ccc(OC)cc4)oc4ccccc34)c2c1` the “activity change, negative = cytotoxicity” value was inactive: -2.42%. In the case of `Cc1cccn2cc(-c3cccc(NS(=O)(=O)c4ccc(Cl)c(Cl)c4)c3)nc12`, the “activity change, negative = cytotoxicity” value is reported as inactive: -6.34%. With `COc1ccc(C2c3cccn3CCN2S(=O)(=O)c2ccccc2[N+](=O)[O-])cc1OC` (configuration not stated) the “activity change, negative = cytotoxicity” value was inactive: -15.2%. With `CC(=O)c1cccc(NC(=O)Cn2c(SCC(=O)Nc3ccc(F)cc3)nc3ccccc32)c1` the “activity change, negative = cytotoxicity” value was inactive: 3.66%. With `Cc1c2cnn(CC(=O)NCc3ccccc3)c(=O)c2c(C)n1Cc1cccc(Cl)c1` the “activity change, negative = cytotoxicity” value was inactive: -12.6%. In the case of `CCOc1ccc(-n2c(C)nc3c(cnn3-c3ccc(C)cc3)c2=O)cc1`, the “activity change, negative = cytotoxicity” value is reported as inactive: -23.8%. With `CCN(CCCNC(=O)c1cc2c(=O)[nH]c3ccccc3c2s1)c1ccccc1` the “activity change, negative = cytotoxicity” value was inactive: 0.815%. For `CCC1CCCCN1S(=O)(=O)c1ccc(NC(=O)c2cc(=O)c3ccccc3o2)cc1` (configuration not stated), the “activity change, negative = cytotoxicity” value was inactive: 0.209%. With `O=S(=O)(c1ccc(-n2cnnn2)cc1)N1CCN(c2ccccc2F)CC1` the “activity change, negative = cytotoxicity” value was inactive: -3.71%. With `O=C(Nc1nc(-c2ccc(Br)cc2)ns1)c1ccc(F)cc1` the “activity change, negative = cytotoxicity” value was inactive: -24.2%. For `Cn1cc(S(=O)(=O)c2ccccc2)c(=O)c2cc(F)c(N3CCOCC3)cc21`, the “activity change, negative = cytotoxicity” value was inactive: -3.88%. With `N#C/C(=C\c1ccc(Cl)cc1)C(=O)NCC1CCCO1` (configuration not stated) the “activity change, negative = cytotoxicity” value was inactive: 10.5%. In the case of `COc1ccc(CCN2C(=O)N(c3ccc(F)cc3)C(=O)C2CC(=O)Nc2ccccc2)cc1` (configuration not stated), the “activity change, negative = cytotoxicity” value is reported as inactive: -4.37%. With `COc1ccc(-c2c(C#N)c(SCC(=O)Nc3ccccc3C)nc(C)c2C(=O)Nc2ccccc2)cc1OC` the “activity change, negative = cytotoxicity” value was inactive: 1.22%. For `COCCCNC(=O)CSc1nc(-c2cccc(F)c2)[nH]c1-c1ccccc1`, the “activity change, negative = cytotoxicity” value was inactive: 0.101%. In the case of `O=C(CN1CCN(Cc2ccccc2Cl)C1=O)NCc1ccccc1Cl`, the “activity change, negative = cytotoxicity” value is reported as inactive: 1.72%. In the case of `CCOc1ccc(C(=O)c2cn(CC(=O)Nc3cc(OC)cc(OC)c3)c3ccc(F)cc3c2=O)cc1`, the “activity change, negative = cytotoxicity” value is reported as inactive: 0.974%. With `COc1ccc(NC(=O)Cn2c(=O)oc3cc(S(=O)(=O)NC(C)C)ccc32)cc1OC` the “activity change, negative = cytotoxicity” value was inactive: -0.214%. In the case of `O=C(CCn1c(=O)c2cccn2c2ccc(F)cc21)NCc1ccccc1F`, the “activity change, negative = cytotoxicity” value is reported as inactive: -0.0817%. In the case of `Cc1ccc(NC(=O)CSc2nc(-c3ccc(F)cc3)cc(C(F)(F)F)c2C#N)cc1`, the “activity change, negative = cytotoxicity” value is reported as inactive: 5.5%. With `Cc1cccc(NC(=O)Cn2c(=O)n(Cc3ccc(C(=O)NCc4ccc5c(c4)OCO5)cc3)c(=O)c3ccccc32)c1` the “activity change, negative = cytotoxicity” value was inactive: 9.33%. In the case of `CCNC(=O)CC1C(=O)N(c2ccccc2)C(=O)N1Cc1ccc(F)cc1` (configuration not stated), the “activity change, negative = cytotoxicity” value is reported as inactive: 2.11%. With `COc1ccccc1N1CCN(S(=O)(=O)c2ccc3c(c2)oc(=O)n3C)CC1` the “activity change, negative = cytotoxicity” value was inactive: 1.62%. For `Cc1nnc(N2CCC(C(=O)NC(C)C)CC2)c2nn(-c3ccc(Cl)cc3)c(C)c12`, the “activity change, negative = cytotoxicity” value was inactive: 1.41%. With `Cc1ccccc1Cn1c(CCCNC(=O)C2CCCCC2)nc2ccccc21` the “activity change, negative = cytotoxicity” value was inactive: 2.13%. With `COc1ccc(S(=O)(=O)N(Cc2nc(-c3cccc(C)c3)no2)C2CCCCC2)cc1` the “activity change, negative = cytotoxicity” value was inactive: 1.44%. In the case of `Cc1ccccc1Cn1c(SCc2ccc(C(=O)NCc3cccs3)cc2)nc2ccncc21`, the “activity change, negative = cytotoxicity” value is reported as inactive: -14.9%. For `Cc1cccc(OCc2nnc(SCC(=O)Nc3ccc(C)cc3C)o2)c1`, the “activity change, negative = cytotoxicity” value was inactive: 17.9%. For `O=C(Nc1ccccc1)N1CCN(C(=O)c2nsc3ccccc23)CC1`, the “activity change, negative = cytotoxicity” value was inactive: 6.87%. With `CC(=O)c1cccc(NC(=O)CCc2c(C)nc3c(-c4ccc(F)cc4)c(C)nn3c2C)c1` the “activity change, negative = cytotoxicity” value was inactive: 4.37%. With `Fc1cccc(F)c1-c1nc(-c2ccncc2)no1` the “activity change, negative = cytotoxicity” value was inactive: 5.45%. For `Cc1cc(=O)n2nc(N3CCC(C(=O)Nc4ccc(C(C)C)cc4)CC3)sc2n1`, the “activity change, negative = cytotoxicity” value was inactive: -5.33%.

Source: PubChem BioAssay AID1508642 (National Center for Advancing Translational Sciences (NCATS), 2021)
% is set by controls: 0 for no effect and ±100 for the full control effect.
